# Measurements as given in PubChem BioAssay AID686978 (National Center for Advancing Translational Sciences (NCATS), 2013).
# The whole screen tested about 420,000 compounds, of which about 64,000 (15%) were called active. Inconclusive means that the source gave no clear call. Such entries were picked first, then a sample of the others. Calls come from the whole dose curve; as a rule, active = well fitted inhibition curve with a large enough effect; inconclusive = small, poorly fitted or top-dose-only effect; inactive = flat fitted curve, though single readings scatter. No potency is given beside an inconclusive call; the fits are too rough.
# Test: qHTS for Inhibitors of human tyrosyl-DNA phosphodiesterase 1 (TDP1): qHTS in cells in absence of CPT; note: nearly all actives have a fitted effect of over 55% in size
# Settings: DT40 Tdp1-/- hTDP1 cells, no CPT, ATP luminescence, 48 h; activity change, negative = growth inhibition: at 46.2 µM (top of the series) unless noted
# Procedure, shortened: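 Chicken DT40 Tdp1-/- cells complemented with human TDP1, screened without camptothecin (DMSO vehicle only), 400 cells/well. Compounds pin-transferred, cells incubated at 37 °C for at least 48 hr. Growth read as ATP-dependent luminescence (CellTiter-Glo, 30 min at RT).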
# % is set by controls: 0 for no effect and ±100 for the full control effect; potency is the fitted concentration of half-maximal effect; tags give direction and shape of the fitted curve.
SMILES,Potency,"activity change, negative = growth inhibition"
COc1ccccc1NC(=S)N(Cc1ccco1)Cc1cc2cc(C)c(C)cc2[nH]c1=O,active: 5.17 µM,–
COc1cc(/C=N/N=C(/C(=O)c2ccccc2)c2ccccc2)cc(OC)c1O,"inconclusive [inhibitor, single point]",–
CC(=O)Nc1sc(N/N=C/c2ccc(N(C)C)cc2)nc1-c1ccc(C)cc1,inactive,–
O=C(Nc1ccccc1)C1Cc2c(-c3ccco3)ccnc2O1 (stereo unspecified),"inconclusive [inhibitor, single point]",–
COc1cccc(CNc2nc3ccccc3n2C)c1O,–,inconclusive: -34.6% [inhibitor]
COc1ccc(N(CC(=O)Nc2cccc(N(C)S(C)(=O)=O)c2)S(=O)(=O)c2ccc(F)cc2)cc1,"inconclusive [inhibitor, partial curve]",–
CC(NC(=O)C1CCN(c2nnc(-n3cccc3)s2)CC1)C12CC3CC(CC(C3)C1)C2 (stereo unspecified),active: 14.6 µM,–
CCc1ccc(OC2(C)CCN(Cc3ccccc3OC(F)F)C2)cc1 (stereo unspecified),"inconclusive [inhibitor, single point]",–
CCOc1nc(NC2CCCC2)nc(N2CCC(C)CC2)n1,"inconclusive [inhibitor, single point]",–
Cc1ccc(C2(CCNS(=O)(=O)c3ccc(C)cc3)CCOC(C(C)C)C2)cc1 (stereo unspecified),"inconclusive [inhibitor, single point]",–
COc1cc(C(=O)N2CCC(c3ccncc3)CC2)cc(OC)c1OC,inactive,–
CNC(=S)N(Cc1ccco1)Cc1cc2cc3c(cc2[nH]c1=O)OCCO3,"inconclusive [inhibitor, single point]",–
Cc1cccc(OCCCC(=O)NNC(=O)c2ccc(F)cc2)c1,inactive,–
COc1ccc(CC(=O)N2CC(=O)Nc3ccc(Br)cc3C2c2ccc(F)cc2)cc1OC (stereo unspecified),"inconclusive [inhibitor, single point]",–
CC(=O)N1CCCc2cc(S(=O)(=O)NCc3ccc(N(C)C)cc3)ccc21,active: 20.6 µM,–
CN=c1scc(-c2cccs2)n1/N=C/c1ccccc1O,active: 23.1 µM,–
COCCCNC(=O)CSc1nc2nc(C)c(Cc3ccccc3Cl)c(C)n2n1,"inconclusive [inhibitor, partial curve]",–
O=C(CNC(=O)c1ccccc1O)N/N=C/c1ccccn1,inactive,–
Clc1cccc(-c2cccc3nccn23)c1Cl,"inconclusive [inhibitor, single point]",–
CC(=O)NC(CC(=O)OCC(=O)N1CCN(S(=O)(=O)c2ccc(Cl)cc2)CC1)c1ccccc1 (stereo unspecified),inactive,–
COc1ccc(NC(=O)C2Cc3c(-c4cccc(F)c4)ccnc3O2)cc1 (stereo unspecified),"inconclusive [inhibitor, single point]",–
Cc1cnc(-c2nc3ccccc3n2C(C(=O)Nc2c(C)cccc2C)C2CC2)cn1 (stereo unspecified),"inconclusive [inhibitor, single point]",–
COc1cccc(C(=O)Nc2ccc3nc(SCc4ccc(C)cc4)sc3c2)c1,active: 16.4 µM,–
O=c1c2ccccc2ncn1Cc1ccc(Cl)cc1,inactive,–
Cc1cccc(-n2c(SCC(=O)Nc3ccccc3Cl)nc3n[nH]c(C)c3c2=N)c1,active: 20.6 µM,–
O=C1CC2(CCN(C(=O)c3c(F)cccc3Cl)CC2)Oc2ccccc21,"inconclusive [inhibitor, partial curve]",–

SMILES,Potency,"activity change, negative = growth inhibition"
CCCC(=O)N(c1ccc(OCC)cc1)S(=O)(=O)c1ccc2c3c(cccc13)C(=O)N2C,active: 13 µM,–
O=C(c1cnsn1)N1CCOc2ccc(C(O)C(c3ccccc3)c3ccccc3)cc2C1 (stereo unspecified),"inconclusive [inhibitor, single point]",–
O=C(NCCc1ccccc1O)c1cc2c(cc1[N+](=O)[O-])OCO2,inactive,–
Cc1ccc(-n2nnnc2-c2cccs2)cc1[N+](=O)[O-],inactive,–
COc1cccc(CNC(=O)c2n[nH]c3ccccc23)c1,active: 16.4 µM,–
Cc1ccccc1C(=O)NC(=S)N(C)CCc1ccccn1,inactive,–
O=C(N/N=C/c1c[nH]c2ccccc12)c1cc(-c2ccc3ccccc3c2)n[nH]1,"inconclusive [inhibitor, full curve, poor fit]",–
CCCNC(=S)N1CCN(CC)CC1,inactive,–
Nc1nnc(-c2ccc(Cl)c([N+](=O)[O-])c2)s1,"inconclusive [inhibitor, single point]",–
CCOc1ccc(C(=O)Nc2cccc(-c3cc4ccccc4oc3=O)c2)cc1[N+](=O)[O-],active: 23.1 µM,–
CCn1c2ccccc2c2nc3cc(S(=O)(=O)N4CCOCC4)ccc3nc21,active: 13 µM,–
CC(/C=C/c1ccco1)=N\NC(=O)c1cccc(Cl)c1,"inconclusive [inhibitor, single point]",–
COc1ccc(NC(=O)CN2CCN(CC(=O)Nc3ccccc3OC)CC2)c(OC)c1,inactive,–
COc1cc2c(cc1OC)[C@@H](Cc1ccc(OCCC#N)cc1)N(C)CC2,"inconclusive [inhibitor, single point]",–
CCc1cccc2c(C(=S)N3CCCC3)c[nH]c12,inactive,–
O=C(COC(=O)/C=C/c1cccc(F)c1)NC(=O)NC1CCCC1,"inconclusive [inhibitor, single point]",–
CC(C)NS(=O)(=O)c1ccc(CCC(=O)N2CCc3ccccc3C2)cc1,"inconclusive [inhibitor, single point]",–
COCCn1c(SCC(=O)c2ccccc2)nc2c(c1=O)SC(C)C2 (stereo unspecified),"inconclusive [inhibitor, partial curve]",–
Cn1c(=O)c(-c2cccs2)nc2cncnc21,inactive,–
COc1ccc(C2NCCc3sccc32)cc1 (stereo unspecified),inactive,–
CC1(C)CC2CC(C)(CN2C(=O)COC(=O)c2ccccc2C(F)(F)F)C1 (stereo unspecified),"inconclusive [inhibitor, single point]",–
Cc1c(NC(=O)CSc2ccccc2C(=O)Nc2cccnc2)c(=O)n(-c2ccccc2)n1C,inactive,–
COc1ccc(S(=O)(=O)N2CCCC(C(=O)NCCc3ccccc3)C2)cc1 (stereo unspecified),"inconclusive [inhibitor, single point]",–
O=C(NCC(c1cccnc1)N1CCOCC1)C(=O)Nc1cccc(Cl)c1 (stereo unspecified),"inconclusive [inhibitor, partial curve, poor fit]",–
Cc1ccc2nc(-c3ccc(NC(=O)Cc4cccs4)cc3)[nH]c2c1,"inconclusive [inhibitor, single point]",–
CC(C)c1ccc(NC(=O)c2ccccc2NC(=O)C2CC=CCC2C(=O)O)cc1 (stereo unspecified),–,inconclusive: -34% [inhibitor]

SMILES,Potency,"activity change, negative = growth inhibition"
O=C(CC1c2cc(F)ccc2C=C(c2ccsc2)N1c1ccc(C#CCCO)cc1)c1ccco1 (stereo unspecified),active: 20.6 µM,–
CCC(=O)N1CCCC(C)(C(=O)NS(=O)(=O)c2ccccc2Cl)C1 (stereo unspecified),inactive,–
O=C(Nc1ncccc1O)c1cccc(S(=O)(=O)N2CCc3ccccc32)c1,"inconclusive [inhibitor, partial curve]",–
COCCn1c(N)c(C(=O)Nc2sc3c(c2C(=O)OC)CCCC3)c2nc3ccccc3nc21,"inconclusive [inhibitor, single point]",–
Cn1ccnc1C(=O)c1cccc([N+](=O)[O-])c1,inactive,–
COc1ccc2oc(C(=O)OCC(=O)NC(=O)c3ccccc3)c(C)c2c1,inactive,–
CCCc1ccc(OCC(O)CN2CCN(C(=O)OCC)CC2)cc1 (stereo unspecified),inactive,–
CC(=O)N1CCc2cc(Br)cc(S(=O)(=O)N3CCC(C(=O)O)CC3)c21,inactive,–
COc1cccc(-c2nnc(-c3ccc4ccccc4c3)o2)c1,inactive,–
CC(Nc1cc(C)cc(C)c1)=[N+](C)CCNS(=O)(=O)c1ccc(Cl)cc1,inactive,–
Cc1nc2ccc(Br)cn2c1C(=O)N/N=C\c1ccccc1[N+](=O)[O-],inactive,–
N=C1C(=O)OCC1c1ccccc1NC(=O)CN1CCCCC1 (stereo unspecified),inactive,–
COc1cccc(NC(=O)CSc2nc(C)cs2)c1,"inconclusive [inhibitor, single point]",–
C#Cc1ccc(NC(=O)C2(C)CCN2C(=O)Cc2ccc(C(C)(C)C)cc2)cc1 (stereo unspecified),"inconclusive [inhibitor, single point]",–
Cc1ccc(C)c(N2CCN(C(=O)C(C)n3nc(C)c4sc5ccccc5c4c3=O)CC2)c1 (stereo unspecified),inactive,–
COC(=O)/C(=C\c1cccnc1)NC(=O)c1ccc(OCc2ccccc2)cc1,"inconclusive [inhibitor, full curve, poor fit]",–
CN1CCc2nc(NC(=O)c3cccc(S(=O)(=O)N4CCc5ccccc54)c3)sc2C1,inactive,–
Cc1cc(C(=O)Nc2ccncc2)c(C)o1,"inconclusive [inhibitor, single point]",–
CCOC(=O)CC1COCCN1C(=O)c1cc(COc2ccccc2SC)on1 (stereo unspecified),"inconclusive [inhibitor, single point]",–
CN(C[C@H](Cc1ccccc1)N(C[C@@H](CC1CCCCC1)N(CCc1ccccc1)N=O)N=O)N=O,"inconclusive [inhibitor, single point]",–
CCc1ccc(NC(=O)Cn2cc([N+](=O)[O-])nc2C)cc1,inactive,–
CCCCCC(=O)Cc1cc(O)cc(O)c1C(=O)Oc1cc(CC(=O)CCCCC)c(C(=O)O)c(OC)c1,inactive,–
Cc1ccc(NC(=O)COc2ccccc2C(=O)Nc2ccccc2)cc1Cl,inactive,–
CCn1c(SCC(=O)N/N=C(\C)c2ccncc2)nnc1-c1ccc(C)cc1,"inconclusive [inhibitor, single point]",–
